Data reported in the supplement of paper PMC3724861.
The other results are listed elsewhere or left out.

System: T1, Caupolican (Caup) homeodomain DNA-binding domain
T1 sequence: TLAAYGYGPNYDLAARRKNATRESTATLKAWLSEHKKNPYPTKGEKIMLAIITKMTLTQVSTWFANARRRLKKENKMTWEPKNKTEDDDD
Assay: PBM E-score (8-mer, recovered from the published 9-mer minima) (E-score (dimensionless, -0.5 to 0.5)); Drosophila protein; higher = stronger relative binding preference, active = 0.31 or more
Outline: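 Caup's homeodomain DNA-binding domain (residues 214-303) was produced by in vitro transcription and translation and applied at 100 nM to custom-designed protein binding microarrays. Each value is an enrichment score giving relative binding preference for a short DNA word; higher means stronger. Published 9-mer scores were the minimum of their two constituent 8-mer scores, and the 8-mer values were recovered from those minima. A cutoff of 0.31 marks candidate binding sequences.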

| Sequence | PBM E-score |
| --- | --- |
| ACTTCCAG | inactive: -0.0947 |
| CCCGCGCC | inactive: -0.288 |
| GAACTCGC | inactive: -0.0598 |
| TCTCAACA | inactive: 0.131 |
| AGAGTAAT | inactive: 0.147 |
| TCATTGCA | ≥ 0.135 |
| AGGGACAG | inactive: -0.083 |
| ACCGCTGG | inactive: -0.154 |
| CAATGCGA | inactive: 0.023 |
| CGCCCAAC | inactive: -0.115 |
| GTTGAAGA | inactive: 0.0558 |
| CCAATGCG | inactive: -0.169 |
| ACCATTTA | inactive: 0.119 |
| CTGCGGTA | inactive: -0.0174 |
| GGGCGTAC | inactive: -0.111 |
| GAATATTA | inactive: 0.227 |
| TTACCTAA | inactive: 0.0932 |
| ACGCCCCC | inactive: -0.307 |
| CGCACGTA | inactive: -0.0343 |
| AAACCGCC | inactive: -0.0797 |
| GCTCATCC | inactive: -0.0507 |
| CCCAGCTA | inactive: -0.155 |
| TTCACAAA | inactive: 0.0789 |

| Sequence | PBM E-score |
| --- | --- |
| CAGGGATA | inactive: 0.0273 |
| CAGACGTA | inactive: 0.0544 |
| GACCAAGA | inactive: -0.0778 |
| CATTCCCA | inactive: -0.01 |
| ACCTGGAA | ≥ 0.0703 |
| ATGCCGCA | ≥ 0.0177 |
| GAGATTGA | inactive: 0.057 |
| ATATCTGA | inactive: 0.0648 |
| ACCATAAG | inactive: -0.0172 |
| AGACGACA | inactive: 0.224 |
| ATGAGCGG | inactive: -0.0809 |
| GGCTTAAC | inactive: -0.00361 |
| ACGATTCG | inactive: 0.0118 |
| CGTGGAGA | inactive: -0.17 |
| GTTGGTAA | ≥ 0.243 |
| ACGTCCAA | inactive: -0.00328 |
| CGCTGCTA | inactive: -0.0908 |
| TCCACCGA | ≥ -0.0285 |
| AAGGGATG | inactive: 0.0206 |
| GAGGCAAC | inactive: -0.133 |
| AGAGAGTA | inactive: 0.0533 |
| TCTGGAAA | inactive: 0.0233 |
| GCTTATAC | inactive: -0.034 |

| Sequence | PBM E-score |
| --- | --- |
| CCCCTCGA | inactive: -0.226 |
| CAATGGGC | inactive: -0.0534 |
| CCCAGGTA | inactive: 0.00868 |
| AACAGCCC | inactive: -0.0208 |
| ATCGTACG | inactive: 0.133 |
| AAACGCAC | inactive: -0.0328 |
| GAGAACTC | inactive: -0.0736 |
| CGCGATAG | inactive: -0.00178 |
| AGTGCCTC | inactive: -0.216 |
| AGGGTCTC | inactive: -0.0937 |
| CTGCATGC | inactive: 0.0327 |
| CTCCGCGC | inactive: -0.243 |
| GTTGCAAA | inactive: 0.0186 |
| AATTAATC | inactive: 0.117 |
| AATAGCCA | inactive: 0.0293 |
| GACACTAA | inactive: 0.0423 |
| AAGATCAA | inactive: 0.0657 |
| GATCTCAC | inactive: -0.0625 |
| ATCTATGC | inactive: 0.119 |
| TCTCGTCA | ≥ 0.0608 |
| CCGACTAA | inactive: 0.0369 |
| AACAACAA | active: 0.394 |
| ACTCACTG | inactive: 0.0269 |

| Sequence | PBM E-score |
| --- | --- |
| AAGTGTAA | inactive: 0.14 |
| CAACGGCC | inactive: -0.118 |
| CACCCGTC | inactive: -0.101 |
| CAAGTGGG | inactive: -0.0243 |
| CGTGTGCA | inactive: 0.123 |
| AAACGCGC | inactive: -0.15 |
| AGCAAGGA | inactive: 0.00873 |
| ACAGGTAG | inactive: 0.125 |
| CACGAGGG | inactive: -0.195 |
| AGGACTAA | inactive: -0.0117 |
| AGATCCAC | inactive: -0.0282 |
| GAGCGGAA | ≥ -0.0166 |
| AATGTGAC | inactive: 0.0614 |
| AAAGTCAT | inactive: 0.0654 |
| AGCCATTG | inactive: -0.00821 |
| GCGTTGAC | inactive: -0.0164 |
| ACGAGGGG | inactive: -0.162 |
| CCCAATAA | inactive: -0.0565 |
| AGTCGTAC | inactive: 0.108 |
| ATCCTCGG | inactive: -0.00578 |
| TGGAGCAA | inactive: -0.00986 |
| AGAATAGC | inactive: 0.00374 |
| ACTGCGGG | inactive: -0.154 |

| Sequence | PBM E-score |
| --- | --- |
| ATCAGACG | inactive: 0.0106 |
| GCAGGTTA | inactive: -0.0457 |
| AAATGACT | inactive: 0.0814 |
| AGGGCCCT | inactive: -0.205 |
| ATCTGCTC | inactive: 0.00661 |
| AAACACAT | inactive: 0.229 |
| TACTGCTA | inactive: 0.00036 |
| AAGATGCA | ≥ 0.0765 |
| CCGAGTCC | inactive: -0.166 |
| AATCCCAT | inactive: 0.0876 |
| CGAGATCG | inactive: -0.129 |
| GATCCCGC | inactive: -0.0627 |
| CCAGCGCC | inactive: -0.35 |
| AGACGAAA | inactive: -0.0392 |
| TAATTGAA | inactive: 0.0636 |
| ATAAATGA | inactive: 0.157 |
| CGCCTTTC | inactive: -0.134 |
| GGATACCC | inactive: -0.15 |
| CGCGTCCA | inactive: -0.199 |
| AAGCGAAT | ≥ 0.0855 |
